Hit rate of the full screen: of about 110,000 compounds, about 20 (0.02%) were called active. Inconclusive means that the source gave no clear call. Such entries were picked first, then a sample of the others. The call rests on the fitted dose curve; in most records, active means well fitted activation curve with a large enough effect; inconclusive means small, poorly fitted or top-dose-only effect; inactive means no such curve, though single readings can be large or run the other way. Potencies of inconclusive entries are doubtful fits and often do not repeat.
test: qHTS Assay for Compounds that Induce Erasure of Genomic Imprints; conditions: mouse ES Peg3-LacZ reporter, beta-gal luminescence, 40 h; activity change, positive = activation: at 10.9 µM (top of the series) unless noted;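 on activity change, positive = activation: 0% = negative control wells on the plate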
Excerpt: qHTS Assay for Compounds that Induce Erasure of Genomic Imprints NIH Chemical Genomics Center [NCGC] NIH Molecular Libraries Screening Centers Network [MLSCN] Assay Submitter (PI): JEFFRIES, SEAN, NCGC, University of Cambridge NCGC Peg3 Imprinting Assay Overview Genomic imprinting is the epigenetic process whereby genes are expressed in a parent of origin fashion. […] Unlike some forms of epigenetic silencing that can be overcome by overexpression of transcription factors, genomic imprinting stably represses the expression of one allele despite potentially high levels of expression from the other allele. […] During mouse embryonic day 11.5 imprints are erased in PGCs so that sex specific imprints can be reestablished during gametogenesis. Embryonic germ (EG) cells can be derived from developing PGCs at embryonic day 11.5 and these cells often lack genomic imprints. […] Embryonic stem (ES) cells are a cell type similar to EG cells in phenotype and transcriptional profile, yet ES cells maintain genomic imprints. This similarity between ES and EG cells prompted us to use ES cells to look for factors which could induce imprint erasure. To investigate the stability of genomic imprinting, ES cells were derived from mice with an insertion of a LacZ-Neomycin reporter construct in the Peg3 locus. Peg3 is an imprinted locus where gene expression is restricted to the paternal allele. […] Using LacZ expression we are able to monitor the state of the Peg3 imprint. In order to dissect the mechanisms involved in imprint erasure using a forward chemical genetics approach we developed a cell based phenotype assay using an endogenous silence imprinted locus. This assay utilizes maternally inherited Peg3LacZ-Neo ES cells by monitoring the LacZ expression from the normally silent Peg3 allele. To facilitate screening, high-density feeder-free ES cell culture has been optimized so that ES cells can be grown in 1536 for over four days without feeding or washes. The assay uses a luminescence based read out for LacZ activity and is a homogenous assay optimal for HTS.
NCGC Peg3 Imprinting Assay Protocol Summary ES cell lines were derived from blastocysts taken from Peg3LacZ-Neo x129 matings. Lines were sexed and genotyped for the Peg3LacZ-Neo allele. Female cells carrying the reporter allele were used in this study. Cells were derived on a layer of mouse embryonic fibroblasts and passaged multiple times before switching to feeder free culture. Cells were maintained feeder free on gelatin coated dishes in DMEM/F12 media supplemented with 15% FBS, 2mM L-glutamine, 100 units/ml penicillin, 100ug/ml streptomycin, 0.1mM MEM nonessential amino acids, 1mM sodium pyruvate, 0.1% sodium bicarbonate, 0.1mM 2-Mercaptoethanol, and 400 units/ml leukemia inhibitory factor (LIF) at 37C with 5% CO2. The assay was performed in 1536-well format. A single luminescence read was taken at the end of the assay and the data was normalized by plate to internal negative controls. Maximum efficacy and AC50 values were calculated from dose-response data using the standard Hill equation. 1536 well plates were filled with 0.5ul of 0.1% gelatin per well, spun down and incubated for at least 30 min at 37C. The ES cells were then trypsini Peg3 1536-well assay protocol: (1)Plate 0.5ul/well 0.1% gelatin in white tissue culture treated 1536-well plates, spin and incubate at 37C for at least 30 min. (2)Add 5ul/well (300 cells) of ES cell suspension from freshly trypsinized cells and incubate at 37C, 5% CO2 for 40 hours. (3)Add 5ul/well of freshly prepared BetaGlo solution and incubate at room temperature for 5 minutes. (4)Read luminescence on the ViewLux plate reader. Keywords Genomic Imprinting, Germ Cells, Embryonic Stem Cell, DNA Methylation, Peg3, qHTS, NIH roadmap, NCGC
Potency means the concentration at half of the fitted maximal effect; tags describe the fitted curve by direction and shape.

| Compound | Potency | activity change, positive = activation |
| --- | --- | --- |
| CN1CCN(c2nc(-c3ccc4c(c3)OCO4)nc3ccccc23)CC1 | inconclusive: 5.01 µM [activator, single point] | – |
| CCn1cc(C(=O)NCc2cccs2)c(=O)c2cc(S(=O)(=O)N3CCOCC3)ccc21 | inactive | – |
| Clc1cc(Cl)cc(Cl)c1 | inactive | – |
| CCOc1ccccc1Nc1sc(C(=O)c2ccc(Cl)cc2)c(N)c1C(=O)NCCc1ccccc1 | – | inconclusive: 32.2% [activator] |
| COC(=O)/C=c1/sc2nc3ccccc3n2c1=O | inactive | – |
| CCn1cc(C(=O)NCCCOC)c2cc(OC)c(OC)cc2c1=O | inactive | – |
| CS(=O)(=O)Nc1cccc(-c2ccc3ncnc(NC4CCNCC4)c3c2)c1 | inconclusive: 5.01 µM [activator, single point] | – |
| Cc1ccc(C)c(NC(=O)c2nnn(CC(=O)Nc3cccc(C)c3C)c2N)c1 | – | inconclusive: 30.5% [activator] |
| Cc1cccc(NC(=O)CSc2nnc(-c3ccccc3)n2N)c1C | inactive | – |
| Cc1cc(S(=O)(=O)NCC(c2ccc(N(C)C)cc2)N2CCOCC2)ccc1F (stereo unspecified) | – | inconclusive: 48.8% [activator] |
| CCN(CC)CCN=CC1=C(O)CNC1=O | – | inconclusive: 67.8% [activator] [at 60.7 µM] |
| Cn1cc(Cl)c(C(=O)N2CCN(c3ncccn3)CC2)n1 | inconclusive: 2.51 µM [activator, single point] | – |
| COC(=O)c1[nH]c(C)c(/C(O)=C2\C(=O)C(=O)N(CCCN3CCOCC3)C2c2ccccn2)c1C (stereo unspecified) | inconclusive: 15.8 µM [activator, single point] | – |
| Cc1cc(C)cc(-n2ccn(Cc3ccc(F)cc3)c(=O)c2=O)c1 | – | inconclusive: 35.1% [activator] |
| COCCN(C(=O)Cn1nnc2ccccc21)C(C(=O)NC1CCCC1)c1cc(OC)ccc1OC (stereo unspecified) | inactive | – |
| Cc1ccc(CN2CCCn3nc(C(=O)NCC(C)c4ccccc4)cc3C2=O)cc1 (stereo unspecified) | inactive | – |
| Cc1ccc(/C=C/c2onc(C)c2S(=O)(=O)N2CCC(C(=O)Nc3cc(F)ccc3F)CC2)cc1 | – | inconclusive: 46.2% [activator] |
| O=[N+]([O-])c1ccc(Cl)c(CNc2ncnc3c2ncn3[C@@H]2CCCCO2)c1 | inactive | – |
| NC(=O)c1ccccc1OCC(=O)NS(=O)(=O)c1ccccc1 | inconclusive: 12.6 µM [activator, partial curve] | – |
| CC1CN(C(=O)c2cccs2)CCN1C(=O)c1cccs1 (stereo unspecified) | inactive | – |
| CC(=O)c1cccc(N(CC(=O)NCC2CCCO2)C(=O)CCC(=O)Nc2cc(C)on2)c1 (stereo unspecified) | inconclusive: 2.51 µM [activator, partial curve] | – |
| COC(=O)c1scc(-c2ccc(C)cc2)c1S(=O)(=O)N1CCN(c2ccccc2F)CC1 | – | inconclusive: 39.3% [activator] |
| COc1cccc(-n2cc(C(=O)NCc3ccc(C)cc3)c3ccccc3c2=O)c1 | – | inconclusive: 69.9% [activator] |
| CCc1ccc(OC(=O)c2sc3ncn(Cc4cccc(F)c4)c(=O)c3c2C)cc1 | inactive | – |

| Compound | Potency | activity change, positive = activation |
| --- | --- | --- |
| Oc1c(C(c2ccc(Cl)cc2Cl)N2CCCC2)sc2nc(-c3ccco3)nn12 (stereo unspecified) | – | inconclusive: 33.5% [activator] |
| Cc1cccc(-n2ccnc2SCC(=O)Nc2cc(C(F)(F)F)ccc2Cl)c1 | – | inconclusive: 35.1% [activator] |
| O=C(/C=C/c1ccc(O)c(O)c1)OC1C[C@](O)(C(=O)O)C[C@@H](O)[C@H]1O (stereo partly specified) | inactive | – |
| Cc1ccc(-c2cn3c(n2)sc2cc(C(=O)NC4CCCCC4)ccc23)cc1 | inactive | – |
| CCOc1ccc(CC(=O)NCc2cn3c(C)csc3n2)cc1 | inconclusive: 1.58 µM [activator, partial curve] | – |
| Cc1ccc2nc(N(Cc3cccnc3)C(=O)CCc3ccccc3)sc2c1 | – | inconclusive: 46.8% [activator] |
| COc1cc2c(cc1OC)C(C(C(=O)N(CCc1ccc(OC)c(OC)c1OC)CCc1ccc(OC)c(OC)c1OC)c1ccccc1)=NCC2 (stereo unspecified) | inactive | – |
| COC(=O)[C@@]1(Cc2ccc(OC)cc2)[C@H]2c3cc(C(=O)N4CCCC4)n(CCN4CCOCC4)c3C[C@H]2CN1C(=O)c1ccccc1 | inactive | – |
| S=P(c1ccc(N2CCOCC2)cc1N1CCOCC1)(N1CCOCC1)N1CCOCC1 | inconclusive: 3.98 µM [activator, single point] | – |
| CC(=O)O[C@@H]1CC[C@]2(C)C(=C[C@@H]([C@@H]3C=C4C[C@@H](OC(C)=O)CC[C@]4(C)C4=C3[C@H]3C[C@@H]5O[C@@]6(CC[C@H](C)CO6)[C@@H](C)[C@@H]5[C@@]3(C)CC4)C3=C2CC[C@@]2(C)[C@H]4[C@@H](C)[C@]5(CC[C@H](C)CO5)O[C@@H]4C[C@H]32)C1 | inconclusive: 1.26 µM [activator, single point] | – |
| FC(F)(F)c1ccccc1-c1nc(-n2ccnc2)c2ccccc2n1 | inconclusive: 20 µM [activator, single point] | – |
| Cc1ccc(Nc2nc3nonc3[nH]c2=O)cc1C | inactive | – |
| Cc1ccc(Cl)cc1N1CCN(C(=O)c2cn(C)c3ccc(S(=O)(=O)N4CCCCC4)cc3c2=O)CC1 | – | inconclusive: 76.4% [activator] |
| Cc1cc(C)n2nc(SCc3cc(=O)n4ccccc4n3)nc2n1 | inactive | – |
| Cc1oc(-c2ccc(Cl)cc2)nc1CN1CCCC(C(=O)NCCCN2CCOCC2)C1 (stereo unspecified) | inactive | – |
| Cc1ccc(CNC(=O)CN2C(=O)CSc3ccc(S(=O)(=O)N4CCCC4)cc32)cc1 | – | inconclusive: 100% [activator] |
| COc1ccc(-n2c(SCC(=O)NC3CCCCC3)nc3c([nH]c4ccccc43)c2=O)cc1 | – | inconclusive: 41.7% [activator] |
| COc1ccc(/C=C/C(=O)Nc2ccc(Cl)cc2Cl)cc1 | – | inconclusive: 35.3% [activator] |
| Cc1cc(C)cc(NC(=O)CCCc2nnc3n(CC(C)C)c(=O)c4sccc4n23)c1 | – | inconclusive: 30.2% [activator] |
| CCOc1cc(C2CC(=O)Nc3c2c(=O)nc(SCc2cccc(Cl)c2)n3C)ccc1O (stereo unspecified) | – | inconclusive: 31.4% [activator] |
| O=C1C2=C(Nc3cc([N+](=O)[O-])ccc3N2)O[C@@H]1c1c[nH]c2ccc(COc3ccccc3)cc12 | inconclusive: 1.26 µM [activator, single point] | – |
| C[C@@H]1CCC[C@H](C)N1NC(=O)c1ccc(Cl)c(S(N)(=O)=O)c1 | inconclusive: 5.01 µM [activator, single point] | – |
| CCOc1ccc(-c2cc(C(=O)N3CCN(c4ccc(C)cc4)C(C)C3)c3ccccc3n2)cc1 (stereo unspecified) | inactive | – |
| COc1cc2c(cc1OC)-c1cc(NC3CC3)nc(=O)n1CC2 | inactive | – |

| Compound | Potency | activity change, positive = activation |
| --- | --- | --- |
| Cc1ccc(Nc2nc(N)nc(N)c2S(=O)(=O)c2ccccc2)cc1 | inactive | – |
| COC(=O)C1CCN(C(c2ccccc2Cl)c2sc3nc(-c4ccco4)nn3c2O)CC1 (stereo unspecified) | inactive | – |
| Cc1ccc(C)c(NC(=O)CSc2ncc3c(n2)-c2cc(Cl)ccc2N(Cc2ccccc2F)S3(=O)=O)c1 | – | inconclusive: 31.5% [activator] |
| CCOC(=O)c1cc(-c2ccc(C)cc2)n(CC(=O)NC2CCCCCC2)c1C | inactive | – |
| COc1ccc2[nH]c3c(=O)n(CCCCC(=O)N4CCC(C(N)=O)CC4)c(=S)[nH]c3c2c1 | inconclusive: 2.51 µM [activator, single point] | – |
| COc1ccccc1Nc1nn2c(=O)c3ccc(C(=O)NC(C)c4ccccc4)cc3nc2s1 (stereo unspecified) | inactive | – |
| Cc1cccc(-c2c3c(=O)n(C)c(=O)n(C)c3c3cnc4ccccc4n23)c1 | inactive | – |
| CCCCNc1nc2c(c(=O)n(Cc3ccc(Cl)c(Cl)c3)c(=O)n2C)n1C | inactive | – |
| COC(=O)Cc1c(C)c2cc3c(c(C)c2oc1=O)OCN(CCc1ccc(OC)cc1)C3 | inactive | – |
| COCCn1c(=O)c(-c2cn(C)c3ccccc23)nc2cnc(Oc3cccc(Cl)c3)nc21 | inconclusive: 0.794 µM [activator, full curve] | – |
| COc1cccc(CNC(=O)CN(c2ccc(C(C)C)cc2)S(=O)(=O)c2c(C)n[nH]c2C)c1 | inactive | – |
| COc1cccc(N2CCN(C(=O)Cn3cnc4onc(-c5ccc(F)cc5)c4c3=O)CC2)c1 | inactive | – |
| CC(C)[C@H](Sc1nc(N)nc2nc[nH]c12)C(=O)O | inconclusive: 1.26 µM [activator, single point] | – |
| CCOC(=O)c1cccc(NS(=O)(=O)c2c(C)nc3sc(C)cn3c2=O)c1 | – | inconclusive: 32.4% [activator] |
| Cc1ccc2c(c1)-c1c(c(C(=O)NCCc3ccccc3)nn1C)CS2 | – | inconclusive: 57.8% [activator] |
| Cc1nn(CCC(=O)NCc2ccc(N(C)C)cc2)c(=O)c2nn(-c3ccccc3)c(C)c12 | – | inconclusive: 45.1% [activator] |
| Cc1csc(NC(=O)CSc2nc3ccccc3c(=O)[nH]2)n1 | inactive | – |
| Cc1ccnc(SCCn2c(N3CC(C)CC(C)C3)nc3c2c(=O)n(C)c(=O)n3C)n1 (stereo unspecified) | inconclusive: 12.6 µM [activator, single point] | – |
| COc1cccc(Cn2c(=O)c(-c3cccs3)nc3cnc(OCc4ccccc4)nc32)c1 | inconclusive: 31.6 µM [activator, single point] | – |
| COCCn1c(=O)c(-c2cccs2)nc2cncnc21 | inconclusive: 5.01 µM [activator, single point] | – |
| Cc1ccc(Nc2cc(-c3ccccc3)nc(C)n2)cc1 | – | inconclusive: 34% [activator] |
| COc1cc(C2C(=O)N(C3CCC(C)CC3)CC(=O)N2CCc2ccc(Cl)cc2)ccc1OC(C)C (stereo unspecified) | inactive | – |
| CCOc1ccc(-n2c(SC(C)C(=O)OC)nc3c([nH]c4ccccc43)c2=O)cc1 (stereo unspecified) | – | inconclusive: 45.2% [activator] |
